The source of these data is the RNAGym collection of RNA variant scans (doi:10.7554/elife.90254).

To fix the notation:
B1: OR4K15 (parent)
chain: GUUAACGGUCAUAGGCCAUGGAAACUAGGAGCACCAUUUCGCUGCCAGUGAAGAAAUGAACAAAGAAAAUCUGGGCCAGGCAGGCAUCAAAAGAAAUAGUCUUGCGCUCAACCAGAAAGUCUGUAAUCAUUUUAAGGGUA

The source gives no read counts; variants with many changes may rest on few reads.

This data set covers variants of B1. Kind of data set: self-cleavage, relative activity (ratio to wild type); higher = more cleavage; in vitro, sequencing; the parent is a self-cleaving ribozyme.
Consider GUUAACGGUCAUGGGCCAUGGAAACUAGGGGCACCACUUCGCUGCCUGUGAAGAAAUGAACAAAGAAAAUCUGGGCCAGGCGGGCAUCAAAAGAAAUAGUCUUGCGCUCAACCAGAAAGUCCGUAGUCAUUUUAAGGGUA [A13G A30G U37C A47U A82G U122C A126G], for which the self-cleavage stood at 0.22.
Take GUUAACGGUCAUGGGCCAUGGAAGCUAGGAGCACCAUUUCGCUGCCAGUGAGGAAAUGAACAAAGAAAAUCUGGGCCAGGCAGGCAUCAAAGGAAAAAGUCUUGCGCUCAACCAGAAAGUCUGUAAUCAUUUUAAGGGUA [A13G A24G A52G A92G U97A]: the self-cleavage turned out to be 0.87.
For GUUAACGGUCAUGGGCCAUGGAAACUAGGAGCACCAUUUCGCUGCCAGUGCAGAAACGAGCAAAGAAGAUCUGGGCCAGGCAGGCAUCAAAAGAAAUAGUCUUGCGCUCAACCAGAAAGUCUGUAAUCAUUUUAAGGGUA [A13G A51C U57C A60G A68G], the self-cleavage was 0.8.
Then GUUAACGGUCAGAGGCCAUGGAAACUAGGAGCACCAUUUCGCUGCCAGUGAAGAAAUGAACAAAGAAAAUCUGGGCCAGGCAGGCAUCAAAAGAAAUAGCCAUGCGCUCAACCAGAAAGUCUGUAAUCAUUUUAAGGGUA [U12G U100C U102A], with 1.98.
Then GUUAACGGUCAUGGGCCAUGGAAACUAGGAGCGCCAUUUCGCUGCCAGUGAAGAAAUGAACAAAGAAAAUCCGGGCCAGGCAGGCAACAAAAGAAAUAGUCCUGCGCUCAACCAGAAAGUCUGUAAUCAUUUUAAGGGUA [A13G A33G U72C U87A U102C], with 0.73; and GUUAACGGUCAUGGGCCAUGGAAACUAGGAGCACCAUUUCGCUGCCGGUGAAGAAAUGAACAAAGAAAAUCUGGGCCAGGCAGGCAUCAAAAGAAAUAGUCUUGCGCUCAUCCAGAAAGUCUGUAAUCAUUUUAAGGGUG [A13G A47G A111U A140G], with 0.15; and GUUAACGGUCAGAGGCCAUGGAAACUAGGAGCGCCAUUUCGCUGCCAGUGAAGAAAUGAACAAAGAAAAUCUGGGCCGGGCAGGCAUCAAAAGAAAUAGUCUUGCGCUCAACCAGAAAGUCUGUAAUCAUUUUAAGGGUA [U12G A33G A78G], with 0.27.
The same measure for GUUAACGGUCAUGGGCCAUGGAAACUGGGAGCACCACUUCGCUGCCAGUGAAGAAAUGAACGAGGAAAAUCUGGGCCAGGCCGGCAUCAAAAGAAAUAGUCUUGCGCUCAGCCAGAAAGUCUGUAAUCAUUUUAAGGGUA [A13G A27G U37C A62G A64G A82C A111G]: 0.04; for GUUAACGGUCAUGGGCCAUGGAAGCUAGGAGCACCAUUUCGCUGCCAGUGAAGAAAUGAGCAAAGGAAAUCUGGGCCAGGCAGGCAUCAAAAGAAAUAGUCUUGCGCUCAACCAGAAAGUCUGUAAUCAUUUUAAGGGUA [A13G A24G A60G A66G]: 1.06.
GUUAACGGUCAUGGGCCAUGGAAACUAGGGGCGCCAUUUCGCUGCCAGUGAGGAAAUGAACAAAGAAAAUCUGGGCCAGGCAGGCAUCAAAAGAAAUAGUCUUGCGCUCAACCAGAAAGUCUGUAAUCAUUUUAAGGGUA [A13G A30G A33G A52G]: the self-cleavage came out at 0.95.
The same measure for GUUAACGGUCAUGGGCCAUGGAAACUAGGAGCACCAUUUCGCUGCCGGUGAAGAAAUGAACAAAGAAAAUCUGGGCCAGGCAGGCAUCAAAAGAAAUAGUCCUGCGCUCAACCAGAAAGUCUGUAAUCAUUUUAAGGGUA [A13G A47G U102C]: 1.24; for GUUAACGGUCAGAGGCCAUGGAAACUAGGAGCACCAUUUCGCUGCCAGUGAAGAAAUGAACAAAGAAAAUCUGGGCCAGGCAGGCAUCAAAAGAAAUAGUCUUGCGCUCAACCGGAAAGUCUGUAAUCAUCUUAAGGGUA [U12G A114G U131C]: 0.15; for GUUAACGGUCAUGGGCCAUGGAAACUAGGAGCACCAUUUCGCUGCCAGUGGAGAAAUGAACAAAGAAAAUCUGGGCCAGGCAGGCAUCAAAAGAAAUAGUCUUGCGCUCAACCAGAAAGUCUGUAAUCGUUUUAAGGGUA [A13G A51G A129G]: 0.87.
The same measure for GUUAACGGUCAUGGGCCAUGGAGACUAGGAGCACCAUUUCGCUGCCAGUGAAGAAAUGAACAAAGAUAAUCUGGGCCAGGCAGGCAUCAAAAGAAAUAGUCUUGCGCUCAACCAGAAAGUCUGUAAUCAUUUUAAGGGUA [A13G A23G A67U]: 0.86.
Then GUUAACGGUCAUGGGCCAUGGAAACUAGGAGCACCAUUUCGCUGCCUGUGGAGUAAUGAACAAAGAAAAUCUGGGCCAGGCAGGCAUCAAAAGAAAUAGUCUCGCGCUCAACCAGAAAGUCUGUAAUCAUUUUAAGGGUA [A13G A47U A51G A54U U103C], with 0.25; and GUUAACGGUCAUGGGCCAUGGGAACUAGGAGCACCAUUUCGCUGCCAGUGAAGAAAUGAACAAAGAAAAUCUGGGCCAGGCAGGCAUCAAAAGAAAUAGUCUUGCGCCCAACCAGAAAGUCUGUAAUCAUUUUAAGGGUA [A13G A22G U108C], with 0.02.
GUUAACGGUCAUGGGCCAUGGAGACUAGGAGCACCAUUUCGCUGCCAGUGGAGAAAUGAACAAAGAAAAUCUGGGCCAGGCAGGCAUCAAAAGAAAUAGUCUUGCGCUCGACCAGAAAGUCUGUAAUCAUUUUAAGGGUA [A13G A23G A51G A110G]: the self-cleavage turned out to be 0.39.
Then GUUAACGGUCAUGGGCCAUGGAAGCUAGGAGCACCAUUUCGCUGCCAGUGAAGAAAUGAACAAAGAAAAUCUGGGCCAGGCAGGCAUCAAAAGAAAUAGUCUUGCGCUCAACCAGAAAGUCUGUGAUCAUUUUAAGGGUA [A13G A24G A125G], with 0.52; and GUUAACGGUCAUGGGCCAUGGAAACUAGGAGCACCGUAUCGCUGCCAGAGAAGAAAUGAACAAAGAAAAUCUGGGCCAGGCAGGCAUCAAAAGAAAUAGUCUUGCGCUCAACCAGAAAGUCUGUAAUCAUUUUAAGGGUA [A13G A36G U38A U49A], with 0.56; and GUUAACGGUCAUGGGCCAUGGAAACUAGGAGCGCCAUUUCGCAGCCAGUGAAGAAAUGAACAAAGAAAAUCGGGGCCAGGCAGGCAUCAAAAGAAAUAGUCUUGCGCUCAACCAGAAAGUCUGUAAUCAUUUUAAGGGUA [A13G A33G U43A U72G], with 0.46.
